In PubChem BioAssay AID1508623 (National Center for Advancing Translational Sciences (NCATS), 2021):
Out of some 48,000 compounds screened, about 450 (0.94%) were called active. Another 19% or so got no clear call; they are omitted. The call rests on the fitted dose curve; in most records, active means well fitted inhibition curve with a large enough effect; inconclusive means small, poorly fitted or top-dose-only effect; inactive means no such curve, though single readings can be large or run the other way. The list shows a part of the results.

assay: Primary qHTS for Identification of Small Molecule Inhibitors of Huntingtin Promoter Activity; details: HEK293 HTT promoter firefly luciferase reporter (activity 0% = vehicle and -100% = no light), 24 h; series mostly up to 57.5 µM; activity change, negative = inhibition: at the top concentration; further: nearly all actives have a fitted effect of over 50% in size
Method in brief: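 Luminescence was read after Dual-Glo reagent and a 10 min room-temperature incubation. Values were normalized to vehicle (0% activity) and zero RLU (-100% activity). Reporter HEK293 cells had been exposed to compounds (up to 57.5 uM final) for 24 h.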

Activity change, negative = inhibition, inactive:
CCCSc1nc2sc3c(c2c(=O)n1Cc1ccccc1)CC(C)(CC)OC3 (stereo unspecified) -8.86%
COC(=O)c1nnn(-c2cccc(C)c2)c1C(=O)OC 4.74%
CCOC(=O)c1c(S(=O)(=O)NCC(=O)Nc2cc(C)ccc2C)c(C)n(C)c1C -10.2%
CCc1nn(Cc2cc(C)ccc2C)c(=O)c2cc3cc(C)ccc3n12 -0.333%
CCc1nn2c(=O)cc(COC(=O)c3ccco3)nc2s1 -10.2%
Cc1ccc(-c2cn3c(n2)sc2cc(C(=O)NC(C)C45CC6CC(CC(C6)C4)C5)ccc23)cc1 (stereo unspecified) 28.1%
COc1ccc(N2CCN(C(=O)c3cc4c(s3)-c3ccccc3OC4)CC2)cc1 1.79%
COc1ccc(N2CC(NC(=O)c3ccc(Br)o3)CC2=O)cc1 (stereo unspecified) 3.51%
O=C(Cn1ncc2c([nH]c3ccccc32)c1=O)NCC1CCN(Cc2ccc(F)cc2)CC1 -7.46%
CCOc1ccccc1CNC(=O)C1CCN(S(=O)(=O)c2ccc3c(ccn3C)c2)CC1 -1.1%
Cc1cc(Cl)ccc1NC(=O)CN(c1ccccc1Br)S(C)(=O)=O -19.1% [at 11.5 µM]
CCOc1ccc(C(=O)NCCS(=O)(=O)N2CCN(c3ccccc3F)CC2)cc1OCC -17.5%
COc1ccc(CN2CCN(c3ncnc4sc5c(c34)CC(C)CC5)CC2)cc1F (stereo unspecified) -6.83%
COc1ccccc1N1CCN(CCCNC(=O)c2cnn(-c3ccccc3)c2C2CCN(C(=O)OC(C)(C)C)CC2)CC1 -10.1%
CCc1ccc(-n2c(Cc3ccccc3)nnc2SCc2nc(-c3cccs3)no2)cc1 -17%
Cc1ccc(/C=C/c2onc(C)c2S(=O)(=O)N2CCC(C(=O)NCC(C)c3ccccc3)CC2)cc1 (stereo unspecified) -5.69%
CC1=C(C(=O)NCc2ccc(Cl)cc2)C2(CCCCC2)OC1=O -26.6%
CC(C)C(=O)Nc1ccc([N+](=O)[O-])c(C(F)(F)F)c1 -19.9%
CCCCCn1c(-c2ccc(OC)c(OC)c2)nc2ccccc21 13.1%
Cc1ccc(Cl)cc1N1CCN(S(=O)(=O)c2ccc3c(c2)CCCN3C(=O)C2CCC2)CC1 -17.3%
Cc1ccc(CN2C(=O)c3oc4ccc(C)cc4c(=O)c3C2c2ccc(O)cc2)cc1 (stereo unspecified) 0.356%
Cc1ccc(OCC(=O)N(Cc2ccco2)Cc2ccc(C)o2)cc1 -28.5%
CCC(C)NC(=O)c1nn(-c2ccc(C)cc2)c(=O)n(C)c1=O (stereo unspecified) -2.97%
COc1ccc(-c2cc(C(F)(F)F)n3nc(C(=O)Nc4ccccc4SC)cc3n2)cc1OC -3.72%
COc1cc2c(=O)n(CCC(=O)NCC3CCCO3)c(=O)n(CC(=O)Nc3ccc(C)c(C)c3)c2cc1OC (stereo unspecified) -22.2%
COc1cccc(CCNC(=O)c2c(O)nc3ccccn3c2=O)c1 16.8%
CC(C)c1cccc(OCCn2c(-c3ccc(Cl)cc3)nc3ccccc3c2=O)c1 -9.4%
COCCCNC(=O)C1CCN(c2nn3cc(-c4ccc(F)cc4)nc3s2)CC1 8.17%
Cc1ccccc1C(=O)OCc1cc(=O)n2nc(-c3cccs3)sc2n1 -15%
CC(=O)O[C@]1(C(C)=O)CC[C@@H]2[C@@H]3C[C@H](C)C4=CC(=O)CC[C@]4(C)[C@H]3CC[C@@]21C -10.7%
CC1=C(C(=O)Nc2ccccc2)C(c2cccs2)n2nc(SCc3ccccc3F)nc2N1 (stereo unspecified) -10.1%
Cc1ccc(C)c(NC(=O)c2cc(S(=O)(=O)N3CCCCCC3)ccc2F)c1 -23%
CN(C)CCN(Cc1ccco1)C(=O)c1oc2ccccc2c1NC(=O)c1ccccc1 -26.3%
Cc1ccc2c(=O)c(C(=O)c3cccc(Cl)c3)cn(CC(=O)Nc3ccc4c(c3)OCCO4)c2n1 -17.8%
Cn1cc(S(=O)(=O)c2cccc(Cl)c2)c(=O)c2cc(F)c(N3CCN(c4ccccc4)CC3)cc21 -1.94%
O=C(CSc1nnc(NC(=O)Nc2ccccc2)s1)Nc1cccc(F)c1 22.2%
COc1ccc(CCCc2nnc(SCC(=O)Nc3ccc(OC)cc3)o2)cc1 -8.66%
CN1C(=O)Cc2cc(S(=O)(=O)CCC(=O)Nc3ccc(F)c(Cl)c3)ccc21 -10.5%
CN(C)[C@@H]1C(=O)C(C(N)=O)=C(O)[C@@]2(O)C(=O)C3=C(O)c4c(O)ccc(Cl)c4[C@@H](O)[C@H]3C[C@@H]12 -0.562%
O=C(Nc1cc(F)ccc1F)N1CCC(CN2CCCC2)CC1 -18.3%
COc1ccc2c(c1)CCCC2=O 15%
CCc1ccccc1Nc1cc(C(=O)NC(C)c2ccccc2)c2ccccc2n1 (stereo unspecified) 6.93%
CCCc1nn2c(=O)cc(COC(=O)c3ccccc3NC(=O)c3ccc(Cl)cc3)nc2s1 10%
CCOC(=O)c1ccccc1NC(=O)N1CCC(CN2CCCCC2)CC1 -8.38%
Cc1ccc(NC(=O)C(C)Sc2nc(=O)cc(N)n2-c2ccccc2)cc1 (stereo unspecified) -17.3%
CCCC(=O)Nc1ccc(-c2nc3ncccc3o2)cc1C 42.1%
CCOc1ccc(NC(=O)C2CCN(c3nnc(-n4c(C)ccc4C)s3)CC2)cc1 -21.3%
COCCNC(=O)c1cccc(-n2c(C)nc3cccnc32)c1 -19.9%
Cc1nc(-c2cccnc2)sc1CCNS(=O)(=O)c1ccc(F)cc1 -11.2%
COc1ccc(-c2cc(C(F)(F)F)nc(SCC(=O)NCCc3ccccc3)n2)cc1OC -22.5%
CCc1sc(Nc2cccc(C)c2C)nc1-c1cc2cccc(OC)c2oc1=O -10%
COc1cc(OC)cc(-n2c(=O)c3sccc3n(Cc3c(C)cc(C)cc3C)c2=O)c1 -26%
COc1ccc(NC(=O)Cn2c(=O)n(CCc3ccccc3)c(=O)c3ccccc32)cc1 15.3%
COc1cccc(CNS(=O)(=O)c2cc3c(cc2C)n(C)c(=O)c(=O)n3C)c1 4.91%
Cc1noc(-c2ccc(NCc3ccccc3)c([N+](=O)[O-])c2)n1 14.3%
CCCCNC(=O)c1c(C)oc2ncn(CC(C)C)c(=O)c12 -20.7%
CCOc1ccc(NC(=O)Cn2nc(-c3ccncc3)ccc2=O)cc1 -22.2% [at 11.5 µM]
O=C(c1cccc(Cl)c1)N1CCN(CCc2ccccn2)CC1 -23.3%
Cc1ccccc1OCC(=O)Nc1cc(-c2cccc(Br)c2)nn1-c1ccccc1 1.48%
O=C(NCc1nc2cccnc2n1Cc1ccc(F)cc1)c1ccccc1C(F)(F)F -14.9%
Nc1c(-c2nc(-c3ccncc3)no2)nnn1CC(=O)Nc1ccccc1 -11.1%
